Measured values as given in patent US20240190987A1, “Engineered EpCam Binding Antibodies” (TigaTX, priority 2021, published 2024).

Assays:
Ab1073 = assay: kinetics
[1] = target: cyEpCAM ECD Ag0066 (cyno); assay: SPR single-cycle
[2] = target: T1, huEpCAM ECD Ag0065 (human) (UniProt P16422); assay: SPR single-cycle
T1 sequence: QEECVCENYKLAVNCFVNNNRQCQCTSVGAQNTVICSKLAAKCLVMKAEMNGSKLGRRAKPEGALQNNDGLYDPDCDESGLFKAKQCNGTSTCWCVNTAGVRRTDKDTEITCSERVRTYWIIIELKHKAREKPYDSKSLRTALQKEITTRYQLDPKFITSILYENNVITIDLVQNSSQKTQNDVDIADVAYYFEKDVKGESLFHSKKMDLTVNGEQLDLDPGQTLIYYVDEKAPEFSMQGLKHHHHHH

B1: Ab1102 (bispecific antibody)
scFv-Fc: QVQLVQSGAEVKKPGASVKVSCKASGYTFTSYWMHWVRQHPGQGLEWMGMIHPNSGGTNYAQKFQGRVTMTRDTSTSTVYMELSSLRSEDTAVYYCAMGDYVSADYWGQGTLVTVSSGGGGSGGGGSGGGGSEIVLTQSPGTLSLSPGERATLSCRASSSVSSSYLHWYQQKPGQAPRLLIYSTSSRATGIPDRFSGSGSGTDFTLTISRLEPEDFAVYYCQQYSGYQFTFGQGTKLEIKGGGGS[human IgG1 Fc with changes left out]
light: DIQMTQSPSSLSASVGDRVTITCSASSSVSSGNFHWYQQKPGKAPKLLIYRTSNLASGVPSRFSGSGSGTDYTLTISSLQPEDFATYYCQQWSGYPYTFGQGTKVEIKRTVAAPSVFIFPPSDEQLKSGTASVVCLLNNFYPREAKVQWKVDNALQSGNSQESVTEQDSKDSTYSLSSTLTLSKADYEKHKVYACEVTHQGLSSPVTKSFNRGEC
heavy: EVQLVESGGGLVQPGGSLRLSCAASGFTFSNYWMNWVRQAPGKGLEWVAQIRVKSENFATHYADSVKGRFTISRDDSKSTVYLQMNSLRAEDTAVYYCTLYDGFSWGQGTLVTVSSASTKGPSVFPLAPSSKSTSGGTAALGCLVKDYFPEPVTVSWNSGALTSGVHTFPAVLQSSGLYSLSSVVTVPSSSLGTQTYICNVNHKPSNTKVDKKV[human IgG1 Fc with changes left out]
Question: How did the Kd (Ab1073) turn out when B1 was run?
Answer: 20 nM

B2: Ab0837 (antibody)
heavy: EVQLVESGGGLVQPGGSLRLSCAASGFTFSNYWMNWVRQAPGKGLEWVAQIRVKSENFATHYADSVKGRFTISRDNSKNTLYLQMNSLRAEDTAVYYCTLYDGFSWGQGTLVTVSSASTKGPSVFPLAPSSKSTSGGTAALGCLVKDYFPEPVTVSWNSGALTSGVHTFPAVLQSSGLYSLSSVVTVPSSSLGTQTYICNVNHKPSNTKVDKKV[human IgG1 Fc with changes left out]
light: DIQMTQSPSSLSASVGDRVTITCSASSSVSSGNFHWYQQKPGKAPKLWIYRTSNLASGVPSRFSGSGSGTDYTLTISSLQPEDFATYYCQQWSGYPYTFGQGTKVEIKRTVAAPSVFIFPPSDEQLKSGTASVVCLLNNFYPREAKVQWKVDNALQSGNSQESVTEQDSKDSTYSLSSTLTLSKADYEKHKVYACEVTHQGLSSPVTKSFNRGEC
Question: Which Kd [1] does the source give for B2 here?
Answer: 7.5 nM

Question: And the Kd [2]?
Answer: 6.6 nM

B3: Ab0843 (antibody)
heavy: EVQLVESGGGLVQPGGSLRLSCAASGFTFSNYWMNWVRQAPGKGLEWVAQIRVKSENFATHYADSVKGRFTISRDNSKNTLYLQMNSLRAEDTAVYYCTLYDGFSWGQGTLVTVSSASTKGPSVFPLAPSSKSTSGGTAALGCLVKDYFPEPVTVSWNSGALTSGVHTFPAVLQSSGLYSLSSVVTVPSSSLGTQTYICNVNHKPSNTKVDKKV[human IgG1 Fc with changes left out]
light: DNQMTQSPSSLSASVGDRVTITCSASSSVSSGNFHWYQQKPGKAPKLWIYRTSNLASGVPSRFSGSGSGTDYTLTISSLQPEDFATYYCQQWSGYPYTFGQGTKVEIKRTVAAPSVFIFPPSDEQLKSGTASVVCLLNNFYPREAKVQWKVDNALQSGNSQESVTEQDSKDSTYSLSSTLTLSKADYEKHKVYACEVTHQGLSSPVTKSFNRGEC
Question: Which Kd [1] does the source give for B3 here?
Answer: 8.7 nM

Question: What about the Kd [2] of the same binder?
Answer: 9.9 nM
